The other results are listed elsewhere or left out. These are further read-outs of the screen, such as a control signal, another cell line or another target. No call is given for them.

The target of the experiment is GTPase KRas (Homo sapiens) (UniProt P01116). The experiment can be described thus: Covalent labelling of cysteine mutants by fragments, read by mass spectrometry (AID 2202238). Also on record: protein at 5 µM with 500 µM competing thiol for 1.5 h. The conditions noted are these: KRAS G12D cysteine mutants, disulfide tethering, MALDI-TOF labeling, stronger effect = higher value, fragment at 500 µM.

Where [1] appears, read: measured here: G60C mutant labeling.
[2] abbreviates: measured here: G75C mutant labeling.
Setting [3] is: measured here: H94C mutant labeling.
The mark [4] stands for this setting: measured here: I36C mutant labeling.
Where [5] appears, read: measured here: L120C mutant labeling.
Where [6] appears, read: measured here: M67C mutant labeling.
[7] abbreviates: measured here: M72C mutant labeling.
Where [8] appears, read: measured here: N26C mutant labeling.
[9] abbreviates: measured here: N86C mutant labeling.
Setting [10] is: measured here: P121C mutant labeling.
The mark [11] stands for this setting: measured here: S122C mutant labeling.
The mark [12] stands for this setting: measured here: S136C mutant labeling.

Chain of UniProt P01116 (P01116 whole entry, looked up, the tested form may be a part): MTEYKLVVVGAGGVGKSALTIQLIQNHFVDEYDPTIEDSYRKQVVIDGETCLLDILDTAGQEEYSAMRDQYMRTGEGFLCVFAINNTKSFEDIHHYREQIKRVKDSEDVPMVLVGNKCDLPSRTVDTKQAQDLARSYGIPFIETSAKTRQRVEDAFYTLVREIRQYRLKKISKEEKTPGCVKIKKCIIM

As for `CC(=O)Nc1c(Cl)ccc(C(=O)NCCS)c1Cl`, the percent labeling runs as follows: under setting [1], 31.8%; under setting [2], 11%; under setting [3], 35.3%; under setting [4], 25%; under setting [5], 33.6%; under setting [6], 34.7%. For the same compound, the percent labeling was 22.6% under setting [7]; 39.2% under setting [8]; 33.4% under setting [9]; 41.8% under setting [10]; 33.1% under setting [11]; 45% under setting [12].

Take `O=C(CCS)NCc1ccc(-c2cccnc2)c(F)c1`: the percent labeling worked out at 22.2% under setting [2]; 32.8% under setting [3]; 40.6% under setting [4]; 35.1% under setting [5]; 37.7% under setting [6]; 52.6% under setting [7]. Moreover, the percent labeling is 21.2% under setting [9], 28.1% under setting [10], 28.1% under setting [11] and 36.5% under setting [12].

With `O=C(Nc1cccc2c1CCCN2C(=O)CCS)NC1CCCCC1`, the percent labeling was found to be 7% under setting [2]; 13.8% under setting [3]; 9.8% under setting [4]; 10.5% under setting [5]; 15.9% under setting [6]; 17.7% under setting [7]. Besides, the percent labeling was determined as 14.1% under setting [9], 12.3% under setting [10], 9.2% under setting [11] and 30.6% under setting [12].

Take `O=C(CCS)Nc1ccc(Cl)cc1-c1nn[nH]n1`: the percent labeling runs as follows: under setting [2], 39.8%; under setting [3], 44.2%; under setting [4], 36.5%; under setting [5], 50.8%; under setting [6], 36.4%; under setting [7], 77.1%. The percent labeling by setting is: under setting [9], 42.4%; under setting [10], 42.1%; under setting [11], 54.8%; under setting [12], 50.4%.

On to `O=C(CCS)Nc1ccc(-c2n[nH]c3c2CCCC3)cc1`, for which the percent labeling by setting is: under setting [2], 6.3%; under setting [3], 17.8%; under setting [4], 34%; under setting [5], 15.7%; under setting [6], 12.7%; under setting [7], 69.7%. Besides, the percent labeling turned out to be 14.3% under setting [9], 11.9% under setting [10], 9.4% under setting [11] and 26% under setting [12].

For `O=C(CCS)Nc1cccnc1OCC(F)(F)F`, the percent labeling reads like this: under setting [2], 9.5%; under setting [3], 41.4%; under setting [4], 23.4%; under setting [5], 26.2%; under setting [6], 29.3%; under setting [7], 16.1%. Moreover, the percent labeling by setting is: under setting [9], 14.6%; under setting [10], 23.6%; under setting [11], 29.8%; under setting [12], 52.1%.

Take `Cn1cc(N2CC(C(=O)NCCS)CC2=O)cn1` (configuration not stated): the percent labeling runs as follows: under setting [1], 22.3%; under setting [2], 10.8%; under setting [3], 27.5%; under setting [4], 23.3%; under setting [5], 37.1%; under setting [6], 27.9%. For the same compound, the percent labeling reads like this: under setting [7], 12.4%; under setting [8], 35.9%; under setting [9], 24.4%; under setting [10], 30.2%; under setting [11], 28.3%; under setting [12], 35.7%.

`CCCC(CC1CCCCC1)C(=O)NCCS` (configuration not stated) registered a percent labeling under setting [1] of 39.7%; a percent labeling under setting [2] of 14%; a percent labeling under setting [3] of 11%; a percent labeling under setting [4] of 8.3%; a percent labeling under setting [5] of 14.5%; a percent labeling under setting [6] of 13.9%. In addition, the percent labeling came to 24.9% under setting [7]; 27.5% under setting [8]; 2.9% under setting [9]; 13.2% under setting [10]; 9.2% under setting [11]; 22.3% under setting [12].

Turning to `Cn1c(C2CC2)nn(CC(=O)NCCS)c1=O`, the percent labeling reads like this: under setting [1], 19.1%; under setting [2], 8.4%; under setting [3], 24.9%; under setting [4], 23.8%; under setting [5], 39.9%; under setting [6], 25.8%. The percent labeling amounted to 19.9% under setting [7]; 27.3% under setting [8]; 18.8% under setting [9]; 30.3% under setting [10]; 28.7% under setting [11]; 47% under setting [12].

For the compound `CN(C)C1(C(=O)NCCS)CCOc2ccccc21` (configuration not stated), the percent labeling came out at 58.2% under setting [1]; 20.4% under setting [2]; 28.5% under setting [3]; 20.3% under setting [4]; 26% under setting [5]; 29.8% under setting [6]. In addition, the percent labeling was 39.2% under setting [7]; 35.2% under setting [8]; 23.7% under setting [9]; 21.9% under setting [10]; 20.5% under setting [11]; 60.5% under setting [12].

With `Cc1ncc(CNC(=O)CCS)n1-c1ccccc1`, the percent labeling by setting is: under setting [2], 38.4%; under setting [3], 29.3%; under setting [4], 43.3%; under setting [5], 31%; under setting [6], 37.4%; under setting [7], 15.2%. The compound also had a percent labeling under setting [9] of 8.8%, a percent labeling under setting [10] of 31.6%, a percent labeling under setting [11] of 28.7% and a percent labeling under setting [12] of 56.5%.

As to `O=C(CC1c2ccccc2Oc2ccccc21)NCCS`, the percent labeling under setting [1] is 42.4%; the percent labeling under setting [2] worked out at 14%; the percent labeling under setting [3] amounted to 15.7%; the percent labeling under setting [4] stood at 11.9%; the percent labeling under setting [5] was determined as 19.1%; the percent labeling under setting [6] is 11.9%. Moreover, the percent labeling is, setting by setting: under setting [7], 42.6%; under setting [8], 22.6%; under setting [9], 11.9%; under setting [10], 29.9%; under setting [11], 8.7%; under setting [12], 13.8%.

In the case of `O=C(CCS)N(Cc1ccco1)Cc1ccco1`, the percent labeling stood at 10% under setting [2]; 24.9% under setting [3]; 18% under setting [4]; 22.9% under setting [5]; 20% under setting [6]; 26.4% under setting [7]. For the same compound, the percent labeling is 18.9% under setting [9], 16.6% under setting [10], 18.7% under setting [11] and 49% under setting [12].

`O=C(CCS)N1CCC(c2nc(-c3ccncc3)cs2)CC1`: the percent labeling runs as follows: under setting [2], 18.7%; under setting [3], 25.9%; under setting [4], 21.7%; under setting [5], 25.4%; under setting [6], 37.7%; under setting [7], 40.9%. Further, the percent labeling runs as follows: under setting [9], 18.1%; under setting [10], 23%; under setting [11], 17.5%; under setting [12], 35.5%.

On to `COCCc1noc(CC2CCN(C(=O)CCS)CC2)n1`, for which the percent labeling reads like this: under setting [2], 9.5%; under setting [3], 32.6%; under setting [4], 34.8%; under setting [5], 30.4%; under setting [6], 35.7%; under setting [7], 14.4%. The percent labeling is, setting by setting: under setting [9], 18.8%; under setting [10], 31%; under setting [11], 34.9%; under setting [12], 57.3%.

These data come from PubChem BioAssay AID2202238 (Ras Initiative Chemistry Research Team, Frederick National …, 2025).
